According to the antibiotic and cytotoxicity screens of Wong et al. (2023):
Some of the results follow.

Key:
HSkMC = human skeletal muscle cells; experiment: cytotoxicity call (relative viability < 0.9); details: 10 µM
HepG2 = experiment: cytotoxicity call (relative viability < 0.9); details: 10 µM
S. aureus RN4220 = experiment: growth inhibition call (relative growth <= 0.2); details: 50 µM

COc1ccc(S(=O)(=O)N(C)C[C@H]2OCCCC[C@H](C)Oc3ccc(NC(=O)c4ccccc4)cc3C(=O)N([C@@H](C)CO)C[C@H]2C)cc1
inactive: cytotoxicity call (HSkMC) | cytotoxicity call (HepG2) | growth inhibition call (S. aureus RN4220)

C[C@H]1CN([C@@H](C)CO)C(=O)c2cccc(NC(=O)NC3CCCCC3)c2O[C@@H]1CN(C)Cc1ccc(-c2ccccc2)cc1
inactive: cytotoxicity call (HSkMC) | cytotoxicity call (HepG2) | growth inhibition call (S. aureus RN4220)

COC(=O)c1c(CC[C@@H](CO)NC(=O)N[C@@H](C)Cn2cc(C3(O)CCCC3)nn2)oc(C(C)=O)c1C(=O)OC
inactive: cytotoxicity call (HSkMC) | cytotoxicity call (HepG2) | growth inhibition call (S. aureus RN4220)

C[C@@H]1CN([C@H](C)CO)C(=O)c2cccc(NS(=O)(=O)c3cn(C)cn3)c2O[C@H]1CN(C)C(=O)Nc1ccc(F)cc1
inactive: cytotoxicity call (HSkMC) | cytotoxicity call (HepG2) | growth inhibition call (S. aureus RN4220)

C[C@@H]1CCCCO[C@@H](CN(C)Cc2ccccc2)[C@@H](C)CN([C@H](C)CO)C(=O)c2cc(NC(=O)Nc3ccc4c(c3)OCO4)ccc2O1
inactive: cytotoxicity call (HSkMC) | cytotoxicity call (HepG2) | growth inhibition call (S. aureus RN4220)

C[C@H]1CN([C@@H](C)CO)C(=O)Cc2cc(NS(=O)(=O)c3ccc(F)cc3)ccc2O[C@H]1CN(C)S(C)(=O)=O
inactive: cytotoxicity call (HSkMC) | cytotoxicity call (HepG2) | growth inhibition call (S. aureus RN4220)

C[C@@H]1CN([C@H](C)CO)C(=O)c2cccc(NS(=O)(=O)c3cccs3)c2O[C@H]1CN(C)Cc1ccc(Cl)c(Cl)c1
inactive: cytotoxicity call (HSkMC) | cytotoxicity call (HepG2) | growth inhibition call (S. aureus RN4220)

C[C@H](CO)N1C[C@H](C)[C@H](CN(C)C(=O)Nc2cccc3ccccc23)Oc2ccc(NC(=O)Cc3cn(C)c4ccccc34)cc2CC1=O
inactive: cytotoxicity call (HSkMC) | cytotoxicity call (HepG2) | growth inhibition call (S. aureus RN4220)
